The campaign covered roughly 48,000 compounds. About 450 (0.94%) were called active. Inconclusive results (about 19%) are left out. Calls come from the whole dose curve; as a rule, active = well fitted inhibition curve with a large enough effect; inconclusive = small, poorly fitted or top-dose-only effect; inactive = no such curve, though single readings can be large or run the other way. The list shows a part of the results.
Experiment: Primary qHTS for Identification of Small Molecule Inhibitors of Huntingtin Promoter Activity; note: nearly all actives have a fitted effect of over 50% in size
Details: HEK293 HTT promoter firefly luciferase reporter (activity 0% = vehicle and -100% = no light), 24 h; series mostly up to 57.5 µM; activity change, negative = inhibition: at the top concentration
Outline: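 Firefly luciferase readout (Dual-Glo, 10 min RT) after 24 h, 37 °C compound exposure (final up to 57.5 uM) of HEK293 reporter cells cultured 24 h beforehand; PTC124 at 50 uM final as control inhibitor; activity scaled vehicle 0%, zero RLU -100%.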

Activity change, negative = inhibition, inactive:
CCN(CC)S(=O)(=O)c1nnc(NC(=O)COc2ccccc2Cl)s1 -10.9%
O=C(COc1ccccc1F)OCc1cc(=O)n2nc(-c3cccs3)sc2n1 -12.6%
COC(=O)c1ccc(NC(C)=O)cc1OC -2.2%
CCC(CC)c1nn2c(=O)cc(COc3ccc(NC(=O)c4ccccc4Cl)cc3)nc2s1 -8.37%
Cc1ccccc1CNC(=O)C1CCN(c2nn3cc(-c4ccc(F)cc4)nc3s2)CC1 9.95%
CC1CCCCN1CCCNC(=O)Cn1ncc2c([nH]c3ccccc32)c1=O (stereo unspecified) 4.33%
Cc1cccc(CNS(=O)(=O)c2ccc3[nH]c(=O)ccc3c2)c1 -6.36%
COc1ccc(Cn2c(=O)[nH]c3cc(C(=O)N4CCN(c5cc(C)ccc5C)CC4)ccc3c2=O)cc1 -27%
COc1ccc(C)cc1NC(=O)c1cc(S(=O)(=O)NC2CCCCCC2)ccc1F -26.4%
CC(C)Cn1c(=O)c2ccccc2n2c(CCC(=O)Nc3cccc(Cl)c3)nnc12 -4.48%
CCOC(=O)c1cnc2cc(-c3ccc(Cl)cc3)nn2c1-c1ccccc1 -20.3%
CC(=O)c1cc(-c2ccccc2)n(CC(=O)NC2CCCCC2)c1C -4.02%
CCOc1ccccc1/C=C/c1onc(C)c1S(=O)(=O)N1CCC(C(=O)N(CC)CC)CC1 -25.1%
OC(CCN1CCCC1)(c1ccccc1)C1CCCCC1 (stereo unspecified) -0.326%
O=C1Nc2c(c(=O)[nH]c(=O)n2-c2ccccc2)C1(NS(=O)(=O)c1ccc(Cl)cc1)C(F)(F)F (stereo unspecified) -11.1%
Cc1ccc(NC(=O)Cn2c(=O)n(CCCCCC(=O)NCc3ccc(F)cc3)c(=O)c3sccc32)cc1C -10.5%
O=C(Cc1ccc(F)cc1)NC1CC(=O)N(c2ccccc2)C1 (stereo unspecified) -15.9%
CCOc1ccc(Cn2nnc3c(=O)[nH]c(C4CCN(C(=O)c5ccccc5)CC4)nc32)cc1 -25.4%
Cc1cc(C)cc(-n2nnc(-c3nc(-c4ccc5c(c4)OCO5)no3)c2C)c1 -8.07%
Cc1ccc(S(=O)(=O)C(CNC(=O)C(=O)NCc2ccc(Cl)cc2)c2cccs2)cc1 (stereo unspecified) -26.3%
CC(=O)c1ccc(NC(=O)c2cn3c4c(ccc(Cl)c4c2=O)OC(C)C3)cc1 (stereo unspecified) -7.61%
CCC(=O)N1c2ccc(S(=O)(=O)N3CCN(c4ccccc4)CC3)cc2CC1C (stereo unspecified) -7.48%
COc1cc2c(=O)n(CCC(=O)NCC3CCCO3)c(=O)n(CC(=O)Nc3ccc(C)cc3)c2cc1OC (stereo unspecified) -3.39%
Nc1ccc2c(c1)CN1C(=O)c3ccccc3C1=N2 -27.4% [at 25.2 µM]
CC(Oc1ccc(F)cc1)C(=O)NCC1(N(C)C)CCCCC1 (stereo unspecified) -14.6%
Cc1c(NC(=O)c2ccc(OC(C)C)cc2)cccc1-c1nc2ncccc2o1 1.87%
Cc1ccc(S(=O)(=O)c2cn(CC(=O)Nc3ccc(C)c(Cl)c3)c3ccc(C)cc3c2=O)cc1 -14.3%
Cc1ccc(CNC(=O)C2CCCN(S(=O)(=O)c3ccc4c(c3)oc(=O)n4C)C2)cc1 (stereo unspecified) -8.08%
CCCS(=O)(=O)Nc1cc(-c2cn3cccc(C)c3n2)ccc1C 17.9%
COc1ccc(-c2cc(C(F)(F)F)c(C#N)c(SCC(=O)Nc3ccc(F)cc3)n2)cc1 -15.6%
COc1ccc(-c2cn3nc(N4CCC(C(=O)NCc5ccccc5F)CC4)sc3n2)cc1 21.3%
CCCNC(=O)c1ccc2c(c1)ncn2-c1ccc(C)cc1C -9.41%
Cn1c(N2CCCCS2(=O)=O)nc(C(=O)NCc2ccc(F)cc2)c(O)c1=O 4.5%
CCCC(O)C(CC)CO (stereo unspecified) 2.39%
CC(CN(C)C)CN1c2ccccc2CCc2ccccc21 (stereo unspecified) -2.92%
COP(=O)(OC)OC(c1ccc(Cl)cc1)P(=O)(OC)OC (stereo unspecified) 6.46%
CN(C)CCNC(=O)c1ccc(-n2c(-c3ccccc3)cc3c2CCCC3)cc1 -5.15%
Cc1nc(-c2ccccc2)sc1-c1ccc(SCC(=O)NCc2ccc(F)cc2)nn1 -0.884%
Cn1c(=O)c2c(SCC(=O)N3CCc4ccccc43)nc(-c3ccccc3Cl)nc2n(C)c1=O 17.3%
Clc1ccc(-c2nc3sccn3c2C=NOCc2ccc(Cl)c(Cl)c2)cc1 -7.22%
CCC(CC)C(=O)NC1CC(=O)N(c2ccc3c(c2)OCCO3)C1 (stereo unspecified) -15.5%
CCOc1ccc(-n2c(SCC(=O)N3CCCC3)nc3c([nH]c4ccccc43)c2=O)cc1 -2.9%
COC(=O)C(Cc1c[nH]c2ccccc12)NC(=O)COc1ccc(Cl)cc1Cl (stereo unspecified) -27.2%
CCOc1ccc(-n2c(CCC(=O)O)ccc2-c2ccc(Br)cc2)cc1 0.497%
CCc1ccc(CNC(=O)CCSCc2ccccc2F)cc1 -26%
Cc1cccc(NS(=O)(=O)c2ccc3[nH]c(=O)ccc3c2)c1C -16.1%
COc1ccccc1OCCn1c(-c2ccc(Cl)cc2)nc2ccccc2c1=O -4.31%
COc1ccc(C(=O)c2cn(CC(=O)Nc3ccc4c(c3)OCCO4)c3ccc(OC)cc3c2=O)cc1 -19.8%
COc1cccc(C2=CC(c3ccc(OC)c(OC)c3OC)n3ncnc3N2)c1 (stereo unspecified) -7.19% [at 11.5 µM]
CCN(C(=O)Cc1nc(-c2ccc(OC)cc2)no1)c1cccc(Cl)c1 -18.5%
O=C(Cn1c(=O)nc(-c2ccccc2)c2ccccc21)Nc1ccc(Cl)c(C(F)(F)F)c1 -12.9%
CCC(C)NC(=O)Cn1ncc2c([nH]c3ccc(C)cc32)c1=O (stereo unspecified) -16.5%
COc1cccc(-c2ccc3c(N)c(C(=O)c4ccc(Cl)cc4)sc3n2)c1 -11.2%
CCc1cccc(NC(=O)Cn2nc(-c3ccc(OC)cc3)ccc2=O)c1 4.89%
CCOc1ccccc1NC(=O)Cn1c(=O)n(Cc2ccccc2)c(=O)c2c(C)c(C)sc21 -18.8%
CCOC(=O)c1ccc(N2C(=O)c3n[nH]c(-c4cccs4)c3C2c2ccc(C(C)(C)C)cc2)cc1 (stereo unspecified) -8.31%
O=C(Nc1nc2n(n1)C(c1ccccc1)C=C(c1ccccc1)N2)c1ccc(Cl)c([N+](=O)[O-])c1 (stereo unspecified) -14%
Cc1ccc(NC(=O)c2c(C)oc3ccc(O)c(CN4CCCCCC4)c23)c(C)c1 -29.6%
CCOC(=O)c1[nH]c(C)c(CCC(=O)NCc2ccc(OCC)cc2)c1C -7.5%
CC(C)OCCCNC(=O)c1cc2c(-c3ccc(Cl)cc3)nn(C)c2s1 -29.9%
COc1cc(NC(=O)C2CCCN(S(=O)(=O)c3ccc4c(c3)oc(=O)n4C)C2)c(C(=O)O)cc1OC (stereo unspecified) -12.2%
CCc1ccc(NC(=O)C(=O)NCCc2csc(-c3ccc(C(F)(F)F)cc3)n2)cc1 7.26%
Cc1cc(C)c(NC(=O)Cn2c(=O)n(Cc3ccc4c(c3)OCO4)c(=O)c3ccc(C(=O)NC4CCCCC4)cc32)c(C)c1 -0.164%
O=C(NCc1ccccc1F)c1ccc(CN2CC(=O)N3CCCCC3C2=O)cc1 (stereo unspecified) -19.3%
N#C/C(=C\c1ccc(Cl)cc1)c1nc(-c2cc3ccccc3oc2=O)cs1 0.575%
CCOC(=O)c1sc2cccc(F)c2c1S(=O)(=O)N1CCN(c2cccc(Cl)c2)CC1 -7.83%
CCc1ccc(CNC(=O)c2cnc3sc4cc(OC)ccc4n3c2=O)cc1 -2.11%
CCCn1c2ccccc2c2cnn(CC(=O)N3CCC(C)CC3)c(=O)c21 -5.2%
COc1ccc(Nc2ncc3c(n2)CCN(Cc2cc(Br)cs2)C3)c(OC)c1 -16.8%
CC(C)C(=O)c1c(C(C)C)nn2ccccc12 14.3%
COc1ccccc1NC(=O)c1cc2c(=O)oc3ccc(C)cc3c2s1 -4.54%
CCCCOc1ccccc1C(=O)N(Cc1ccc(C)o1)C1CCS(=O)(=O)C1 (stereo unspecified) -17.8%
Cc1ccc(NC(=O)CSc2nc3c(oc4ccccc43)c(=O)n2-c2ccc(F)cc2)c(C)c1 -26.1%
COCCCNC(=O)CCCCn1c(=O)c2ccccc2n(CC(=O)Nc2ccc(C)cc2C)c1=O -10.7%
Cc1cccn2c(=O)c3cc(C#N)c(=O)n(-c4nnc(SCc5ccccc5F)s4)c3nc12 -9.15%
COCCNC(=O)CSc1nc2cc3c(cc2c(=O)n1CCCCCC(=O)NCc1ccc(OC)cc1)OCO3 -6.87%
COc1ccc(CNC(=O)c2ccc3c(c2)nc2n3CCC(C)C2)c(OC)c1 (stereo unspecified) 11.6%
CCOc1ccccc1NC(=O)Cn1nnc2sc(-c3ccccc3)cc2c1=O 10.7%
CC(C(=O)NCc1ccccc1F)n1ccc2cc(S(=O)(=O)N3CCCC3)ccc21 (stereo unspecified) -27.3%
CCOc1ccccc1NC(=O)c1c(NC(=O)c2cccc(C)c2)sc2c1CCCC2 2.38%
CCc1ccccc1NC(=O)Nc1cc(C(=O)NCc2ccc(C)cc2)ccc1N1CCCC1 3.46%
CC1CN(C(=O)Nc2ccc(C(=O)NCc3cccc(F)c3)cc2)c2ccccc2S1 (stereo unspecified) -19.3%
O=C(Nc1ccc(C(F)(F)F)cc1)C1CCCN(c2cnccn2)C1 (stereo unspecified) -4.94%
O=C(Nc1ccccc1Cl)N1CCC(CN2CCCCC2)CC1 -10.4%
C[C@H]1[C@H]2CC[C@H]3[C@@H]4CC=C5C[C@@H](N(C)C)CC[C@]5(C)[C@H]4CC[C@]23CN1C -8.22%
COc1ccc(N2CCN(c3oc(/C=C/c4cc(OC)c(OC)c(OC)c4)nc3C#N)CC2)cc1 -8.49%
COc1cc(C(=O)Nc2ccc3oc(-c4ccc(C)c(Br)c4)nc3c2)cc(OC)c1OC 2.2%
Cc1cc(C)cc(Oc2nc3c(c(=O)n(C)c(=O)n3C)n2Cc2ccc(F)cc2)c1 -2.73% [at 11.5 µM]
CCOC(=O)c1ccccc1NC(=O)N(C)CCc1c(C)nn(CC)c1C 43.1%
CCc1nnc(SCC(=O)Nc2ccc(F)cc2F)c2cc3sc(C)cc3n12 8.73%
Cc1cc(OCC(=O)N(Cc2sccc2C)C2CCS(=O)(=O)C2)ccc1Cl (stereo unspecified) -29%
COc1ccc(Nc2cc(C(=O)NCc3ccccc3OC)c3ccccc3n2)cc1 0.281%
Cc1cc(C)c2c(CC(=O)Nc3c(C(=O)Nc4ccc(Cl)cc4)oc4ccccc34)coc2c1 26.5%
COc1ccc(CNC(=O)CN2C(=O)c3cccnc3Oc3ccc(C)cc32)cc1 6.12%
CCCSCCCNC(=O)c1ccc2nc(Cc3ccccc3)oc2c1 0%
CCc1ccc(CNC(=O)CN2CCSc3ccccc32)cc1 -19%
